Test results as given in PubChem BioAssay AID1240 (Sanford-Burnham Center for Chemical Genomics, 2008).
The whole screen tested about 50,000 compounds, of which about 800 (1.6%) showed an effect of 50% or more. The list shows a part of the results.

Target: Bcl-2-like protein 10 (Homo sapiens) (UniProt Q9HD36)
Assay: TR3 peptide-Bcl-B binding displacers, biochemical primary FP assay, phenotype converters (AID 1240);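 further: 0% = Bcl-B with tracer peptide and DMSO and 100% = tracer peptide lacking Bcl-B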
Conditions: GST-Bcl-B / FITC-TR3 peptide fluorescence polarization; stronger effect = higher value; compound at 3.75 mg/L

Sequence of UniProt Q9HD36 (Q9HD36 whole entry, looked up): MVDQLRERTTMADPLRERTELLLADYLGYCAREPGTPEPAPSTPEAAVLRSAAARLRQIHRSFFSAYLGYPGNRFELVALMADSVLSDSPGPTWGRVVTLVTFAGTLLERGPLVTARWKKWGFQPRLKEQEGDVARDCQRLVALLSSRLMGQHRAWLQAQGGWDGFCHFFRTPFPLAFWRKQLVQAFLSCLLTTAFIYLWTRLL

First: O=CN1N=C(c2ccccc2)CC1(O)C(F)(F)F (stereo not drawn)
Second: CC(C)(C)c1ccc(C(=O)N2N=C(c3cccnc3)CC2(O)C(F)(F)F)cc1 (stereo not drawn)
The displacement of the first is higher: 13.4% for the first, -20.3% for the second.

First: Cc1ccc(C2/C(=C(\O)c3ccc(F)cc3)C(=O)C(=O)N2CCCCCC(=O)O)cc1 (stereo not drawn)
Second: Cc1ccc(/C(O)=C2\C(=O)C(=O)N(CCCC(=O)O)C2c2ccc(N(C)C)cc2)cc1 (stereo not drawn)
The displacement of the first is lower: -4.8% for the first, -4.1% for the second.

Going from `O=C(NCC1CCCO1)c1cc(-c2ccc(Cl)cc2)nc2ccccc12` (stereo not drawn) to `O=C(CN(c1ccc(Br)cc1)S(=O)(=O)c1ccccc1)NCC1CCCO1` (stereo not drawn), the displacement rises from -7.6% to 4.1%.

First: O=C(Nc1ccc(O)cc1)c1ccc2c(c1)C(=O)N(c1ccccn1)C2=O
Second: CC(C)N(C(=O)c1ccc(C(=O)Nc2ccc(Nc3ccccc3)cc2)cc1)C(C)C
The displacement of the first is lower: 3.7% for the first, 13.2% for the second.

First: NC(=O)c1c(NS(=O)(=O)c2ccc(Br)cc2)sc2c1CCCCCC2
Second: NC(=O)c1c(NC(=O)C(c2ccccc2)c2ccccc2)sc2c1CCCCCC2
The displacement of the first is higher: 14.3% for the first, -9.7% for the second.

`COc1cc(/C=N/NC(=O)CSCc2ccc([N+](=O)[O-])cc2)cc(OC)c1OC` and `COc1cc(/C=C/C(=O)c2ccc(C)cc2)cc(OC)c1OC` are the same in displacement: 1.6% for the first, 1.6% for the second.

Compared with `O=C(CSc1nc2ccccc2[nH]1)Nc1ccc(F)c([N+](=O)[O-])c1`, `O=C(COc1ccccc1[N+](=O)[O-])Nc1ccc(Cl)cc1Cl` is higher in displacement: 4.1% for the first, 11.1% for the second.

Going from `COc1cccc(N(CC(=O)N2CCCC2)S(=O)(=O)c2ccccc2)c1` to `COc1ccc(N(CC(=O)Nc2ccccc2Cl)S(=O)(=O)c2ccccc2)cc1Cl`, the displacement rises from 1.9% to 12.1%.

Compared with `COc1cccc(/C=N/NC(=O)C(=O)N2CCCCCC2)c1OC`, `COc1ccc(/C=C/C(=O)N2CCCCCC2)cc1Br` is higher in displacement: -1.2% for the first, 9.9% for the second.

`C#CCOc1cc(Br)c(/C=C2\C(=O)NC(=O)N(c3ccc(Cl)cc3)C2=O)cc1OC` and `COc1cc(/C=C2/C(=O)NC(=O)N(c3cccc(C)c3)C2=O)ccc1OCCOc1ccccc1` are the same in displacement: 19% for the first, 19% for the second.

Compared with `CCc1ccc(NC(=O)c2ccccc2C(F)(F)F)cc1`, `O=C(COC(=O)c1ccccc1C(F)(F)F)c1ccc(-c2ccccc2)cc1` is lower in displacement: 3.7% for the first, -2.5% for the second.

Going from `CCOc1ccccc1NC(=O)c1c(NC(=O)c2ccco2)sc2c1CCC2` to `Cc1ccc(-c2nnc(NC(=O)c3ccco3)s2)cc1`, the displacement falls from 4.7% to 0.6%.

Going from `COc1ccc(OCC(=O)NCc2ccc3c(c2)OCO3)cc1` to `CCCNC(=O)/C=C/c1ccc2c(c1)OCO2`, the displacement rises from -8.6% to 5.4%.

Going from `CCOC(=O)C1=C(O)/C(=C/c2cccnc2)SC1=Nc1ccc(C)cc1` to `CCOC(=O)C1=C(O)/C(=C/N(C)C)SC1=Nc1ccccc1`, the displacement falls from 14.8% to 0.7%.

First: Cc1cc(C)n2nc(-c3ccc(Cl)cc3)cc2n1
Second: Cc1cc(Nc2ccc(Cl)cc2)nc(-n2nc(C)cc2C)n1
The displacement of the first is higher: -2.3% for the first, -8.4% for the second.

Going from `CCN(Cc1ccccc1)C(=O)/C=C/c1ccccc1Cl` to `CC(C1CC1)N(Cc1ccccc1)C(=O)Nc1ccccc1Cl` (stereo not drawn), the displacement falls from 10% to -3.9%.

First: COc1ccc(C(N)=O)cc1NS(=O)(=O)c1ccc(F)cc1
Second: COc1ccc(C(=O)N2c3ccc(F)cc3CCC2C)cc1OC (stereo not drawn)
The displacement of the first is higher: 2.6% for the first, -9.7% for the second.

First: CCC(C(=O)Nc1nc2ccc(C)cc2s1)c1ccccc1 (stereo not drawn)
Second: Cc1ccc(N2C(=O)CC(C(C)c3ccccc3)C2=O)c(Br)c1 (stereo not drawn)
The displacement of the first is higher: 10.5% for the first, 4.1% for the second.

First: COC(=O)C1=C(C)NC(=O)NC1c1sccc1C (stereo not drawn)
Second: COC(=O)C1=C(C)NC(=O)NC1c1ccc(OCC(N)=O)cc1 (stereo not drawn)
The displacement of the first is higher: 7.3% for the first, 5.4% for the second.

Going from `Cc1ccc(NC(=O)CC2SC(N)=NC2=O)c([N+](=O)[O-])c1` (stereo not drawn) to `CC(=O)c1cccc(NC(=O)c2ccc([N+](=O)[O-])c(C)c2)c1`, the displacement rises from -11.1% to -0.1%.

First: Cc1cc(Cl)c(OCCCN2CCCCC2)c(Cl)c1
Second: O=C(Nc1ccc(S(=O)(=O)N2CCCCC2)cc1)c1ccccc1Cl
The displacement of the first is lower: 2.3% for the first, 11.6% for the second.

Going from `Cc1cccc(NC(=O)/C(C#N)=C\c2ccc(Sc3ccccc3)o2)c1C` to `Cc1cc(C)c2cccc(NC(=S)NC(=O)c3ccccc3)c2n1`, the displacement falls from 74.9% to 11.1%.

Compared with `COc1cccc(-c2ncnn2-c2ccc(C)c(Cl)c2)c1OC`, `COc1ccc2c(c1OC)C(=O)N(c1ccc(I)cc1)C2` is lower in displacement: -2.6% for the first, -11.8% for the second.

Going from `COc1ccc(/C=C2/SC(=O)N(CCC(=O)Nc3ccc(S(=O)(=O)Nc4nccs4)cc3)C2=O)cc1` to `NS(=O)(=O)c1ccc(NC(=O)/C(=C\c2cccs2)NC(=O)c2ccccc2)cc1`, the displacement falls from 31.8% to 14.7%.

Going from `Cc1ccc(N=C(NOCc2cccc(Br)c2)c2nonc2N)cc1` to `O=C(CSCc1cccc(Br)c1)Nc1cccc2cccnc12`, the displacement rises from -4.7% to -0.7%.

First: COc1cc(/C=c2\sc3nc4ccccc4n3c2=O)ccc1OC(=O)c1ccc(Cl)cc1
Second: CCCCOc1ccc(/C=C2/C(=O)NN(c3ccc(C(=O)OCC)cc3)C2=O)cc1OC
The displacement of the first is higher: 22% for the first, -9.4% for the second.

Going from `Cc1c(OCC(=O)OC(C)C)ccc2c3c(c(=O)oc12)CCC3` to `CCn1c2c(c3cc(Cl)ccc31)CCC/C2=N\O`, the displacement falls from 7.4% to -7.9%.

Compared with `Cc1ccc(C(=O)Nc2ccccc2C(=O)NC2CCCCCC2)cc1`, `O=C(COc1ccccc1Cl)NNC(=O)c1ccccc1I` is lower in displacement: 20.5% for the first, -2.2% for the second.

Compared with `COc1ccc(C2CC(=O)C3=C(C2)Nc2ccccc2NC3c2c(F)cccc2F)cc1` (stereo not drawn), `CC(=O)N1c2ccccc2NC2=C(C(=O)CC(C)(C)C2)C1c1cccc([N+](=O)[O-])c1` (stereo not drawn) is higher in displacement: -7.4% for the first, -0.9% for the second.

Going from `O=C(Nc1ccc(OCc2ccccc2)cc1)C(c1ccccc1)c1ccccc1` to `O=C(COc1ccccc1)Nc1ccc(N2CCOCC2)cc1`, the displacement rises from 7.3% to 12%.

Going from `Cc1ccccc1OCC(=O)NC1CC(C)(C)NC(C)(C)C1` to `CCN(CC)CCCOc1ccccc1Br`, the displacement rises from 0.7% to 10.3%.

First: COC(=O)c1cc(NC(=O)c2cccnc2)cc(C(=O)OC)c1
Second: COc1cc(OC)cc(C(=O)N/N=C(\C)CC(=O)Nc2ccccc2C(F)(F)F)c1
The displacement of the first is higher: -12.7% for the first, -24.7% for the second.

Compared with `NC1=C(N2CCCCC2)C(=O)c2ccccc2C1=O`, `COc1ccc(S(=O)(=O)/N=C2\C=C(Br)C(=O)c3ccccc32)cc1` is lower in displacement: 10.8% for the first, -9.7% for the second.

Compared with `CCCN(CCC)c1ccc(/C=N/NC(=O)c2cccc([N+](=O)[O-])c2)cc1`, `COc1ccccc1C1=N/C(=C\c2ccc([N+](=O)[O-])cc2)C(=O)O1` is higher in displacement: 5.3% for the first, 27.4% for the second.

Going from `CCCC12C(=O)C(C)(C(c3ccccc3)=C1c1ccccc1)C1C(=O)N(c3cccc(Br)c3)C(=O)C12` (stereo not drawn) to `CCOC(=O)C1=NNC2C(=O)N(c3cccc(Br)c3)C(=O)C12` (stereo not drawn), the displacement falls from 11.5% to 6.3%.

First: Nn1c(Nc2ccccc2)nc2ccccc21
Second: Cn1c(-c2nc3ccccc3n2C)nc2ccccc21
The displacement of the first is lower: 2.7% for the first, 4.2% for the second.

Compared with `CC1=NN(c2ccc(S(N)(=O)=O)cc2)C(=O)/C1=C\c1ccc(N(C)C)cc1`, `O=C1/C(=C/c2cccc([N+](=O)[O-])c2)SC(=S)N1c1ccc(O)cc1` is higher in displacement: -1.9% for the first, 19.7% for the second.

First: CCOC(=O)c1c(NC(=O)c2cccc(F)c2)sc(C(=O)N(CC)CC)c1C
Second: COCCOC(=O)C1=C(C)NC(=O)CC1c1c(F)cccc1Cl (stereo not drawn)
The displacement of the first is lower: 5% for the first, 13.1% for the second.

Compared with `Cc1ccc(N2C(=O)C(Cl)=C(NCc3ccccc3)C2=O)c(C)c1`, `Cc1cc(Cl)ccc1NC(=O)Cc1ccccc1` is lower in displacement: -2.5% for the first, -10% for the second.

Compared with `CCOc1ccc(C2=C/C(=C/c3cc(Br)c(OC)cc3OC)C(=O)O2)cc1`, `COC(=O)C1=C(C)N(CCc2ccc(OC)c(OC)c2)C(=O)/C1=C\c1ccc(O)cc1` is lower in displacement: 40.5% for the first, 7.1% for the second.

Going from `CC(C)=C1C2C=CC1C1C(=O)N(c3ccc(Cl)cc3[N+](=O)[O-])C(=O)C21` (stereo not drawn) to `O=C(Nc1ccc2c(c1)OCCO2)c1ccc(Cl)c([N+](=O)[O-])c1`, the displacement rises from -9.5% to 12.4%.

First: COc1ccc(NC(=O)c2sc3cc(C)ccc3c2Cl)c(OC)c1
Second: COc1ccc(OC)c(NC(=O)c2cccc3c(Br)cccc23)c1
The displacement of the first is lower: -6.1% for the first, 5.2% for the second.

Compared with `C(/C=C/c1ccccc1)=NN1CCN(Cc2ccccc2)CC1`, `O=C(C(Sc1ccccc1)c1ccccc1)N1CCOCC1` (stereo not drawn) is higher in displacement: -1.3% for the first, 5.7% for the second.

Going from `Cc1c(Cl)c([N+](=O)[O-])nn1CC(=O)NCCCn1ccnc1` to `COc1ccc(CCNc2cc(N3CCN(CCO)CC3)ccc2[N+](=O)[O-])cc1OC`, the displacement rises from -2.1% to 11.7%.

Compared with `CCC1CCc2c(sc(N)c2C(=O)OC(C)C)C1` (stereo not drawn), `COC(=O)C1=C(C)NC2=C(C(=O)c3ccccc32)C1c1ccc(Br)o1` (stereo not drawn) is higher in displacement: -3.2% for the first, -1% for the second.

First: CCN1C(=O)/C(=C\c2ccc(-c3ccc(I)cc3)o2)SC1=S
Second: CCOc1ccc(/C=N/N=C2\C(=O)Nc3ccccc32)cc1
The displacement of the first is higher: 15.4% for the first, 14.5% for the second.

First: CCc1ccc(OCC(=O)N2CCN(c3ccc([N+](=O)[O-])cc3)CC2)cc1
Second: Cc1ccc(S(=O)(=O)NC(=O)N2CCN(c3cccc(Cl)c3)CC2)cc1
The displacement of the first is higher: 15% for the first, 8.7% for the second.

First: COc1ccc(NC(=O)CSC(N)=O)c(OC)c1
Second: COc1cc(C(=O)NC(NC(=S)Nc2ccccc2Br)C(Cl)(Cl)Cl)cc(OC)c1OC (stereo not drawn)
The displacement of the first is higher: 9% for the first, -5.1% for the second.

First: c1ccc(Oc2nc(-c3cccnc3)nc3ccccc23)cc1
Second: O=S(=O)(Nc1ccc(Cl)cn1)c1ccc(-c2ccccc2)cc1
The displacement of the first is higher: 13.4% for the first, -8.9% for the second.

First: NC(=S)NC12CC3CC(CC(C3)C1)C2
Second: O=S1(=O)CCC(NC(=S)N/N=C/c2ccc(-c3ccc(Cl)cc3Cl)o2)C1 (stereo not drawn)
The displacement of the first is lower: 2.2% for the first, 14.1% for the second.

First: CCCc1nc2c(C)ccc(C)c2c(N)c1CC
Second: Cc1cc(=O)oc2cc(OCc3ccccc3)c(O)cc12
The displacement of the first is lower: -17.2% for the first, 12.9% for the second.

Compared with `O=C(Nc1ccc(Cl)c(Cl)c1)Nc1nnc(COc2ccccc2Cl)s1`, `NC(=O)c1ccc(NC(=O)NCCCCCCNC(=O)Nc2ccc(C(N)=O)cc2)cc1` is higher in displacement: 2.3% for the first, 5.9% for the second.

Compared with `CC(C)c1ccc(C2NN=C(c3ccccc3)S2)cc1` (stereo not drawn), `O=C(O)CCCCCN1C(=O)C(=O)/C(=C(\O)c2ccc(Br)cc2)C1c1ccccc1F` (stereo not drawn) is lower in displacement: -1.4% for the first, -20% for the second.

Going from `O=C1NC(=S)S/C1=C\c1cccc(OS(=O)(=O)c2cccc([N+](=O)[O-])c2)c1` to `CCCCCCCSc1n[nH]c(=O)[nH]c1=S`, the displacement rises from -19.5% to 8.5%.
